The campaign covered roughly 410,000 compounds. About 6,400 (1.6%) were called active. The shares of active, inactive and inconclusive entries below differ from those in the screen. The call rests on the fitted dose curve; in most records, active means well fitted inhibition curve with a large enough effect; inconclusive means small, poorly fitted or top-dose-only effect; inactive means no such curve, though single readings can be large or run the other way. Potencies of inconclusive entries are left out as doubtful fits.
Each compound was assayed against Glucagon-like peptide 1 receptor (Homo sapiens) (UniProt P43220) (assay: qHTS of GLP-1 Receptor Inverse Agonists (Inhibition Mode)). Details: HEK293 GLP-1R CRE-luciferase, luminescence, 24 h, GLP-1R form is constitutively active; activity change, negative = inhibition: at 38.3 µM (top of the series) unless noted.
UniProt P43220, sequence (P43220 whole entry, looked up): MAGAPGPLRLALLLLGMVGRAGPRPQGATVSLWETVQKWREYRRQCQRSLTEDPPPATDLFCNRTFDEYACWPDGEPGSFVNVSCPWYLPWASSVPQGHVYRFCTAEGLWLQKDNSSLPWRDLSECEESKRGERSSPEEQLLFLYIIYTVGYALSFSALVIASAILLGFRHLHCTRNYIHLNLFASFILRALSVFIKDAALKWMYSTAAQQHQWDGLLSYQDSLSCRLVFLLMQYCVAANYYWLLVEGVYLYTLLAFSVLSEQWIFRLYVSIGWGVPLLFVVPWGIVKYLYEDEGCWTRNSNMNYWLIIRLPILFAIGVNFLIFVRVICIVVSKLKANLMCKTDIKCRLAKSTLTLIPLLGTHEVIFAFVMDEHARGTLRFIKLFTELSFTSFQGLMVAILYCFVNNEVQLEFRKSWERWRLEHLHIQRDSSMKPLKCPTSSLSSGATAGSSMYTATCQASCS
Procedure, shortened: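 Luminescence readout: a drop in cAMP-driven luciferase signal flags inverse agonism at a constitutively active GLP-1R stably expressed in HEK293. Compound exposure lasted 24 hr at 37 deg C, 5% CO2.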
Further: nearly all actives have a fitted effect of over 55% in size.
On the % scale 0 is the no-effect control and ±100 the full control effect; potency means the concentration at half of the fitted maximal effect; tags describe the fitted curve by direction and shape.

Compound	Potency	activity change, negative = inhibition
O=C(c1ccc2c(c1)OCO2)C1CCCN(Cc2cn[nH]c2-c2ccccc2)C1 (configuration not stated)	inconclusive [inhibitor, single point]	
Cc1cc(S(=O)(=O)N2CCC3(CC2)OCCO3)c(C)cc1Cl	inconclusive [inhibitor, single point]	
COC(=O)c1c(NC(=O)/C=C/C(=O)O)sc(C)c1-c1ccc(C)cc1	inconclusive [inhibitor, partial curve, poor fit]	
CNCCCOc1cccc(Oc2ccccc2)c1	inconclusive [inhibitor, single point]	
CCCCCCn1c(=O)n2n(c1=O)[C@@H]1CN(S(=O)(=O)c3ccc(C)cc3)C[C@]1(O)[C@@H](OC(=O)NCc1ccccc1F)C2	inconclusive [inhibitor, single point]	
CCc1nc(SCc2ccc(F)cc2)[nH]c(=O)c1C#N	inconclusive [inhibitor, partial curve]	
CCOC(=O)C1=C(C)N(C)C(=S)NC1c1cccc(Cl)c1Cl (configuration not stated)	inconclusive [inhibitor, partial curve, poor fit]	
Cc1cc2c3c(c1C)C1(C(=O)N3C(C)(C)CC2C)C(C#N)=C(N)Oc2cc(O)ccc21 (configuration not stated)	inconclusive [inhibitor, single point]	
CCN(c1ccc(OC)cc1)S(=O)(=O)c1nnc(NC(=O)CC(C)C)s1	inconclusive [inhibitor, partial curve]	
COc1ccc(C(=O)N2CCOC2CNC(=O)C(=O)NCCc2ccccc2OC)cc1 (configuration not stated)	inconclusive [inhibitor, partial curve, poor fit]	
COCc1c(C(=O)NC2CCCCC2)sc2cccc(F)c12	inconclusive [inhibitor, partial curve, poor fit]	
COc1ccccc1N1CCN(CC(=O)Nc2cccc(F)c2)CC1	inconclusive [inhibitor, partial curve, poor fit]	
N#Cc1ccccc1CSc1ccc(-c2nc3ccccc3[nH]2)cn1	inconclusive [inhibitor, single point]	
Cc1cccc(NC(=O)N(Cc2nc3ccccc3c(=O)[nH]2)C2CCCC2)c1	inconclusive [inhibitor, partial curve, poor fit]	
Nc1nc(SCC(=O)Nc2ccc(OCc3ccccc3)cc2)n[nH]1		inactive: 27.7%
COc1cccc(CNC(=O)c2cc(S(=O)(=O)N3CCOCC3)ccc2N2CCCC2)c1	inconclusive [inhibitor, partial curve, poor fit]	
COc1ccc(OC)c(-c2noc(CSc3nnc(Cc4ccccc4)n3-c3cccc(C)c3)n2)c1		inactive: -24.3%
CCOC(=O)Cc1csc(NS(=O)(=O)c2cccc([N+](=O)[O-])c2)n1		inactive: 8.22%
C=C(C)c1cccc(C(C)(C)NC(=O)Nc2ccc(Cl)cn2)c1	inconclusive [inhibitor, partial curve, poor fit]	
O=C(N/N=C/c1cccc(Oc2ccccc2)c1)c1cccc(O)c1	inconclusive [inhibitor, partial curve, poor fit]	
CSc1ccc(S(=O)(=O)N2CCC(C(=O)Nc3ccccc3C(F)(F)F)CC2)cc1	inconclusive [inhibitor, single point]	

Compound	Potency	activity change, negative = inhibition
Cc1ccc(C(c2c(O)nc3n(c2=O)CCS3)c2c(O)nc3n(c2=O)CCS3)cc1		inactive: -2.94%
N/C(Cc1ccc(Cl)cc1)=N\OC(=O)c1cccc2ccccc12	inconclusive [inhibitor, single point]	
CC1(C2CC2)NC(=O)N(CC(=O)Nc2ccc(Cl)c([N+](=O)[O-])c2)C1=O (configuration not stated)	inconclusive [inhibitor, partial curve, poor fit]	
Cc1cccc(/C=N\NC(=O)c2csnn2)c1		inactive: 7.79%
O=C1C2CCCN2C(=O)N1CCCN1CCN(c2cccc(Br)c2)CC1 (configuration not stated)		inactive: -17.4%
CCN1CCN(CC(=O)N2CCCC(C(=O)c3ccc(Oc4ccccc4)cc3)C2)CC1 (configuration not stated)	inconclusive [inhibitor, partial curve, poor fit]	
Nc1ccc(Sc2ccc([N+](=O)[O-])cc2)cc1	inconclusive [inhibitor, single point]	
COc1cccc(NC(=O)CSc2nnc(Cc3cccs3)n2-c2ccc(C)cc2)c1	inconclusive [inhibitor, full curve, poor fit]	
Clc1ccccc1OCc1nnc2n1CCCCC2	inconclusive [inhibitor, partial curve, poor fit]	
COc1ccc(C)c2sc(N(Cc3cccnc3)C(=O)CCc3ccccc3)nc12		inactive: 3.69%
CN1CCN(c2ccc(CNS(=O)(=O)c3ccc(F)cc3Cl)cc2)CC1	inconclusive [inhibitor, full curve, poor fit]	
COc1ccc(-c2cc(C(=O)N3CCc4ccccc4C3)no2)cc1	inconclusive [inhibitor, partial curve, poor fit]	
CCCn1c(=O)c2sccc2n2c(CCCC(=O)Nc3ccc(C)c(F)c3)nnc12		inactive: 0.89%
O=C(NC1CCN(CC(=O)N(c2ccccc2)c2ccccc2)CC1)c1ccc([N+](=O)[O-])cc1	inconclusive [inhibitor, partial curve]	
CCCCN(CC)C(=O)Nc1ccc2c(c1)N(C)C(=O)c1ccccc1S2		inactive: -25.9%
O=C(c1[nH]c(C(F)(F)F)nc1-c1ccccc1)N1CCC(C(O)(c2ccccc2)c2ccccc2)CC1	inconclusive [inhibitor, partial curve, poor fit]	
COc1ccc(C(=O)N2CCc3cc(OC)c(OC)cc3C2COc2ccccc2OC)cc1 (configuration not stated)		inactive: 20.2%
COc1ccc(-c2oc3cc(O)c(OC)c(O)c3c(=O)c2OC)cc1	inconclusive [inhibitor, partial curve]	
S=C(NCCSCc1ccccc1Cl)Nc1ccccc1	inconclusive [inhibitor, partial curve, poor fit]	
COc1ccccc1NC(=S)NC(=O)C1CC1	inconclusive [inhibitor, single point]	
O=C(COc1ccc(S(=O)(=O)NC2CCCCC2)cc1)N1CCN(c2ccc(F)cc2)CC1	inconclusive [inhibitor, partial curve, poor fit]	

Compound	Potency	activity change, negative = inhibition
CCn1c(SCC(=O)N/N=C/c2c[nH]c3ccccc23)nnc1-c1ccc(C(C)(C)C)cc1	inconclusive [inhibitor, partial curve, poor fit]	
c1ccc(-c2nc3ccccn3c2-c2ccccc2)cc1	inconclusive [inhibitor, partial curve, poor fit]	
Nc1ccccc1C#Cc1ccccc1	inconclusive [inhibitor, single point]	
Cc1nc(SCC(=O)c2ccccc2)c(C#N)c(-c2ccco2)c1C(=O)NCc1ccco1	inconclusive [inhibitor, partial curve, poor fit]	
CC(OC(=O)C1CCN(S(=O)(=O)c2ccc(C(C)(C)C)cc2)CC1)C(=O)N(C)C1CCCCC1 (configuration not stated)	inconclusive [inhibitor, partial curve, poor fit]	
CSc1cccc(NS(=O)(=O)c2ccc(-c3coc(C)n3)cc2)c1	active: 8.91 µM	
O=C(c1ccc(Br)o1)N1CCN(Cc2ccccc2Cl)CC1	inconclusive [inhibitor, partial curve]	
O=C(COc1ccc2c(c1)CCC2)N1CCN(c2ccc(F)cc2)CC1	inconclusive [inhibitor, partial curve, poor fit]	
Cc1ccc(-c2ccc(=O)n(CC(=O)Nc3ccc(F)c(Cl)c3)n2)cc1C		inactive: 16.4%
Nc1c(C(=O)N2CCCCCC2)oc2ccccc12	inconclusive [inhibitor, single point]	
Cc1ccc(Nc2nc(Oc3ccc(OCc4ccccc4)nn3)nc(N3CCOCC3)n2)cc1	inconclusive [inhibitor, partial curve, poor fit]	
Fc1ccc(-n2cc(-c3ccccc3)c3c(N4CCOCC4)ncnc32)cc1	inconclusive [inhibitor, partial curve, poor fit]	
C[C@@H]1[C@H]2[C@@H]3CC[C@@H](C3)[C@H]2CN[C@H]1c1cn(Cc2ccccc2)c2ccccc12	inconclusive [inhibitor, single point]	
CC(C)CC(=O)NC(=S)Nc1ccc(Cl)cn1	inconclusive [inhibitor, single point]	
CCC(COC)Oc1cc(NCc2ccccc2)c2ncn(C(C)C)c2c1 (configuration not stated)		inactive: -3.22%
CCCNC(=O)c1ccc2c(=O)c(O)c(-c3ccc(OC)cc3)[nH]c2c1	inconclusive [inhibitor, single point]	
Cc1cc(C)nc(NC(=NCCc2c[nH]c3ccccc23)NC(=O)c2ccco2)n1	inconclusive [inhibitor, single point]	
Cc1ccc(-c2cc(C(=O)N(Cc3ccccc3)Cc3ccco3)no2)cc1F	inconclusive [inhibitor, partial curve, poor fit]	
Cc1ccccc1S(=O)(=O)N1[C@@H](c2ccc(Cl)cc2)C(C(=O)O)=CC[C@H]1c1ccc(Cl)cc1	active: 8.91 µM	
CC(C)(C)C(=O)NNC(=O)c1cc(C(C)(C)C)nn1Cc1ccccc1	inconclusive [inhibitor, single point]	
